Assay results: patent US4076815A, “Quinoxaline compound and composition, process for preparing compound, and method of combatting cholera therewith” (Istituto Chemioterapico Italiano, S.p.A., priority 1977, dated 1978)

Tests used:
[1] = Acute toxicity in four species (summary); conditions: several modes of administration
[2] = tested on: five strains of vibrio cholerae; assay: Summary of effect on five strains of vibrio cholerae
[3] = Subacute toxicity in female rats, gastric gavage 21 days; conditions: 2 g/kg/day gavage, death caused by a mistake in esophagus incannulation
[4] = Teratogenetic study, male and female mice and rats (summary)
[5] = Chronic toxicity in the female mouse, gastric gavage 18 weeks; conditions: for Dead/Treated: 18 weeks; for Fresh Organ-to-Body Weight Ratio, Heart / Fresh Organ-to-Body Weight Ratio, Lungs: m ± SE, 4 animals; for SGPT: mean of 6 animals, 24 hours after last dose
[6] = tested on: cholera; assay: Prophylactic oral administration to humans exposed to cholera; conditions: for effectiveness as prophylactic agent in preventing cholera: oral administration; for treated persons infected: oral, 0.3 to 5 g per day for 3-5 days, epidemic conditions

## Nc1nccc(C=Cc2c[n+]([O-])c3ccccc3[n+]2[O-])n1 [CO-1, 2-[2-(2-amino-4-pyrimidinyl)ethenyl]-quinoxaline 1,4-dioxide]
[1]
  order of toxicity: low order of toxicity
[2]; 100 μg/ml of CO-1
  growth of the remaining two organisms: only marginal growth of the remaining two
[3]
  Dead/Treated: 1/6
[4]
  number of young delivered live at birth: comparable with controls
[5]; 250 mg/kg/day
  Dead/Treated: 0/10
  Fresh Organ-to-Body Weight Ratio, Heart: 0.60 ± 0.08
  Fresh Organ-to-Body Weight Ratio, Lungs: 0.731 ± 0.035
  SGPT: 5 Units/ml
[5]; 500 mg/kg/day
  Urine Amount excreted by 6 animals in 6 hours: 7 mL
  Dead/Treated: 2/10
  Fresh Organ-to-Body Weight Ratio, Heart: 0.47 ± 0.02
  Fresh Organ-to-Body Weight Ratio, Lungs: 1.011 ± 0.110
  SGPT: 6 Units/ml
[6]
  effectiveness as prophylactic agent in preventing cholera: effective by oral administration as a prophylactic agent in preventing cholera
  treated persons infected: None of the treated persons become infected

## Cc1cc(C=Cc2c[n+]([O-])c3ccccc3[n+]2[O-])nc(N)n1 [CO-2, 2-[2-(2-amino-6-methyl-4-pyrimidinyl)ethenyl]-quinoxaline 1,4-dioxide]
[2]; 10 g/ml (so in the source) of CO-2, five strains
  growth of the organisms after 48 hours: no growth after 48 hours of 3 of the organisms
[2]; 100 g/ml (so in the source) of CO-2
  growth of the remaining two organisms: only marginal growth of the remaining two
[6]
  effectiveness as prophylactic agent in preventing cholera: effective by oral administration as a prophylactic agent in preventing cholera
  treated persons infected: None of the treated persons become infected
